Measurements taken from the supplement of paper PMC11876631.
Changes are numbered by the printed parent chain. Numbers in names are those of the source. ± gives the standard deviation of the averaged measurements. Laboratory Escherichia coli strains with one amino-acid change in an essential protein, pooled on minimal glucose agar with carbenicillin or gentamicin at twice the control MIC (plus kanamycin and chloramphenicol for the plasmids), 48 h. Fold change of barcode share against drug-free plates; higher = less susceptible. Active = above 20 in both replicates (the paper's putatively resistant). '<' = one read or none on drug, '>' = one read or none on a drug-free plate. Shares are relative, so most strains fall below 1 when a few take over. Listed are strains with at least 15 reads on both drug-free plates, and hits; most hits rest on fewer reference reads. Replicate rank correlation about 0.5. Edits are read from barcodes.

Biological target: Escherichia coli (laboratory strain)
Assay: barcode share on antibiotic plates over drug-free plates; higher = less susceptible
Procedure: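 A pool of E. coli strains, each edited to carry one amino-acid change in an essential protein, was grown for 48 h on minimal glucose agar with or without antibiotic; strain barcodes were sequenced; mean of two replicates.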

[1] = antibiotic: carbenicillin, 2× MIC (3.1 µg/mL)
[2] = antibiotic: gentamicin, 2× MIC (MIC 0.45 µg/mL)

B1: argG L45A (protein)
chain: MTTILKHLPVGQRIGIAFSGGLDTSAALLWMRQKGAVPYAYTANAGQPDEEDYDAIPRRAMEYGAENARLIDCRKQLVAEGIAAIQCGAFHNTTGGLTYFNTTPLGRAVTGTMLVAAMKEDGVNIWGDGSTYKGNDIERFYRYGLLTNAELQIYKPWLDTDFIDELGGRHEMSEFMIACGFDYKMSVEKAYSTDSNMLGATHEAKDLEYLNSSVKIVNPIMGVKFWDESVKIPAEEVTVRFEQGHPVALNGKTFSDDVEMMLEANRIGGRHGLGMSDQIENRIIEAKSRGIYEAPGMALLHIAYERLLTGIHNEDTIEQYHAHGRQLGRLLYQGRWFDSQALMLRDSLQRWVASQITGEVTLELRRGNDYSILNTVSENLTYKPERLTMEKGDSVFSPDDRIGQLTMRNLDITDTREKLFGYAKTGLLSSSAASGVPQVENLENKGQ
In the case of B1, the “fold change of barcode share” value [1] is reported as 0.422 ± 0.097 and the “fold change of barcode share” value [2] is reported as less than 0.00718.

B2: hemD F57A (protein)
chain: MSILVTRPSPAGEELVSRLRTLGQVAWHFPLIEFSPGQQLPQLADQLAALGESDLLAALSQHAVAFAQSQLHQQDRKWPRLPDYFAIGRTTALALHTVSGQKILYPQDREISEVLLQLPELQNIAGKRALILRGNGGRELIGDTLTARGAEVTFCECYQRCAIHYDGAEEAMRWQAREVTMVVVTSGEMLQQLWSLIPQWYREHWLLHCRLLVVSERLAKLARELGWQDIKVADNADNDALLRALQ
With B2 the “fold change of barcode share” value [1] was 0.131 ± 0.012 and the “fold change of barcode share” value [2] was less than 0.0106.

B3: hemD V182A (protein)
chain: B2 chain with A57F, V182A
In the case of B3, the “fold change of barcode share” value [1] is reported as 0.498 ± 0.1 and the “fold change of barcode share” value [2] is reported as 0.0161 ± 0.0063.

B4: hemD V182W (protein)
chain: B2 chain with A57F, V182W
With B4 the “fold change of barcode share” value [1] was 0.5 ± 0.0083 and the “fold change of barcode share” value [2] was 0.00295 ± 0.00047.

B5: hemD V182Q (protein)
chain: B2 chain with A57F, V182Q
For B5, the “fold change of barcode share” value [1] was 0.414 ± 0.076 and the “fold change of barcode share” value [2] was 0.0312 ± 0.007.

B6: argG L45Q (protein)
chain: B1 chain with A45Q
In the case of B6, the “fold change of barcode share” value [1] is reported as 0.1594 ± 0.00083 and the “fold change of barcode share” value [2] is reported as 0.0127 ± 0.0019.

B7: hemD V182P (protein)
chain: B2 chain with A57F, V182P
In the case of B7, the “fold change of barcode share” value [1] is reported as 1.92 ± 0.93 and the “fold change of barcode share” value [2] is reported as 128 [active].

B8: hemD V183A (protein)
chain: B2 chain with A57F, V183A
B8 was tested, and the “fold change of barcode share” value [1] was 0.38 ± 0.27 and the “fold change of barcode share” value [2] was 0.00541 ± 0.0009.
